According to ChEMBL document CHEMBL4888484, “Replenishing the malaria drug discovery pipeline: Screening and hit evaluation of the MMV Hit Generation Library 1 (HGL1) against asexual blood stage Plasmodium falciparum ,using a nano luciferase reporter read-out” (2022):
About 540 (0.36%) of roughly 150,000 compounds showed an effect of 50% or more. This is one part of the list.

The compounds below were run on Plasmodium falciparum (assay: Primary screen in NF54 nanoGlo assay, in single point, at 2uM, 72h; a lower Z score goes with more inhibition). Details: timepoint 72 hour.
Assay type: functional, Erythrocyte

| Compound | % Inhibition | Z score |
| --- | --- | --- |
| CC(C)C(=O)NC1CC[N+](Cc2csc(C3CCCCC3)n2)(Cc2csc(C3CCCCC3)n2)CC1 | 2% | -0.3 |
| COC(=O)c1c(NC(C)=O)c2cc(NCC(C)(C)C)cnc2n1CCc1ccc(OC)cc1 | -7% | 0.87 |
| Cc1noc([C@@H]2CN(C(=O)c3cscn3)C[C@H]2C(N)=O)n1 | -11% | 1.68 |
| CC[C@H](C)N(Cc1ccc(N(CC)CC)cc1OS(C)(=O)=O)C(=O)COC | -1% | 0.14 |
| O=S1(=O)CC[C@H](NCCc2cscn2)c2cc(Cl)ccc21 | -11% | 1.16 |
| Cc1ccc(CNc2ccc(C(=O)NCc3cccnc3)cc2S(=O)(=O)N2CCOCC2)cc1 | -7% | 1.38 |
| Nc1c(-c2ccccc2)sc2ncccc12 | 3% | -0.36 |
| CN1CC[C@H](N(C)C(=O)c2ccc(-c3ccc4c(=O)[nH]ccc4c3)cc2)C1 | -4% | 0.47 |
| CC(=O)N1CCC(C(=O)Nc2ccc(F)cc2)(N(Cc2ccc(C)cc2)C(=O)c2ccc(C#N)cc2)CC1 | -3% | 0.4 |
| O=C(CNS(=O)(=O)c1ccc2ccccc2c1)N1CCC(c2nc3ccccc3o2)CC1 | -16% | 2.33 |
| Cc1c(Cl)cccc1S(=O)(=O)N1CCC[C@@H]1CS(=O)(=O)c1ccccc1 | -3% | 0.53 |
| Cc1nc(C(C)C)oc1C(=O)N[C@@H]1C(=O)N(C)Cc2ccccc21 | 0% | -0.01 |
| CCCCNCC#CCOc1cc(C)ccc1C(C)C | 2% | -0.3 |
| CC[C@H](C)N(CC(=O)O)C(=O)Cc1cc(C)on1 | 0% | -0.06 |
| COc1cccc(C=CCCN2CCCN(C3CCOCC3)CC2)c1 | -4% | 0.4 |
| CCc1ccc(C(=O)N(C)CC2(CO)CCOCC2)[nH]1 | -14% | 1.39 |
| COc1cccc(NC(=O)c2ccccc2-c2nc3ccccc3s2)c1 | -5% | 0.7 |
| Cc1cn2ccnc(C(=O)Nc3cc(C(=O)N4CCOCC4)ccc3C)c2n1 | -19% | 3.06 |
| CC(C)(C)c1ccccc1S(=O)(=O)Nc1ccc(-c2nc[nH]n2)cc1F | 12% | -1.99 |
| COCc1nc(CNC(=O)N[C@H](C)c2ccc(Cl)cc2)cs1 | -13% | 1.92 |
| CCn1cnnc1CCNC(=O)c1nccnc1C(=O)N1CCCCC1 | -4% | 0.68 |

| Compound | % Inhibition | Z score |
| --- | --- | --- |
| COCCn1nnc2cc(S(=O)(=O)N(C)CC(=O)NCc3cccnc3)ccc21 | -26% | 2.27 |
| O=c1n(C[C@H]2CCOC2)nc2cnccn12 | -10% | 0.87 |
| Cc1noc(-c2ccc(C(C)(C)C)cc2)c1C(=O)N[C@H]1CCCc2ccccc21 | -15% | 1.69 |
| C[C@H](NC(=O)CCCn1cnnn1)c1nc(-c2ccncc2)no1 | -17% | 1.79 |
| CCCN1CCC2(CC1)CCN(C(=O)c1ccc(Cl)c(C)c1)C[C@@H]2CO | -1% | 0.23 |
| COc1ncc(Cl)c(N2CCC[C@H]2c2nc3ccccc3s2)n1 | -5% | 0.46 |
| CC(C)(C)OC(=O)N[C@H]1CCN(Cc2nccn2CC(F)(F)F)C1 | -8% | 1.14 |
| N#Cc1cc(Br)ccc1NCC1CCS(=O)(=O)CC1 | -10% | 1.96 |
| O=C1CN(C(=O)c2cc(C3CC3)[nH]n2)CCN1 | -8% | 0.74 |
| COc1ccc(NC(C)=O)cc1NC(=O)N[C@@H](C)c1cc2ccccc2o1 | 6% | -1.07 |
| CC(C)(C)c1coc([C@@H]2COCCN2Cc2ccc(S(C)(=O)=O)cc2)n1 | -16% | 2.12 |
| C[C@H](O)CN1CCC(CN(CC(=O)NCc2ccc(F)cc2)CC(=O)NCc2ccc(F)cc2)CC1 | -12% | 1.03 |
| Nc1nc(C(=O)NCc2cncn2C2CC2)cs1 | -3% | 0.52 |
| Cc1nc(C)c(CC(=O)Nc2nc(C(C)C)cs2)c(=O)[nH]1 | 7% | -1.13 |
| COC(=O)CCNS(=O)(=O)Oc1ccccc1O | -6% | 1.04 |
| COC[C@@H]1[C@H](C(=O)Nc2cc(OC)ccc2OC)CCCN1C | -7% | 0.85 |
| CC(C)CN1CCO[C@@H](COC(=O)c2ccnn2C)C1 | -1% | 0.14 |
| COC(=O)c1cnc2c(c1)n(CC(=O)N1CCCOCC1)c(=O)n2CC(C)C | -9% | 1.16 |
| CCC(C)Oc1cccc(NC(=O)N2CCC(C(C)(C)C)C(O)C2)c1 (stereo not drawn) | -7% | 0.86 |
| Cc1ccc(-c2nc3ccc(Oc4ccc(N)cc4)cc3nc2-c2ccc(C)c(C)c2)cc1C | 5% | -0.82 |
| O=C(NCc1ccccn1)c1cccc(S(=O)(=O)N2CCOCC2)c1 | -6% | 0.86 |

| Compound | % Inhibition | Z score |
| --- | --- | --- |
| C=CCn1cc(-c2c(-c3ccccc3)ncn2Cc2nc(CC)cs2)cn1 | 5% | -0.78 |
| O=C(Nc1cccc(F)c1)c1cc2nc(N3CCCCC3)sc2s1 | 5% | -0.84 |
| Oc1ccc2ncccc2c1[C@@H](Nc1ccccn1)c1cccc(Br)c1 | 58% | -12.1 |
| CCN(CC)S(=O)(=O)c1ccc(C(=O)N2CCC[C@H]2c2nc3ccccc3n2C)cc1 | -9% | 1.19 |
| N#CC1(C(=O)NC2CCC(F)C2)CCC1 (stereo not drawn) | -5% | 0.46 |
| CC1CC(C)(C)CCC1NC(=O)c1ncncc1Cl (stereo not drawn) | 20% | -2.52 |
| COc1ccccc1N(CC(=O)N[C@H](C)c1ccccc1)S(=O)(=O)c1ccc(C)cc1 | 1% | -0.13 |
| CCc1cnc(C)nc1N1CCC(N2CC(n3nc(C)cc3C)C2)CC1 | 6% | -1.11 |
| O=C(Cn1cncn1)N1CCCC[C@@]12CCCOC2 | 1% | -0.22 |
| O=C(Nc1cc(F)cc(F)c1)N1CC[C@H](Cc2ccncc2)C1 | -5% | 0.93 |
| Cc1csc(N2CCC(NCc3nc(N(C)C)no3)CC2)n1 | -9% | 1.33 |
| c1cc(Oc2nnn[nH]2)ccc1NC[C@H]1CCOC1 | -15% | 1.92 |
| COc1ccc([C@@]2(C)NC(=O)N(Cc3csc(-c4ccccc4)n3)C2=O)cc1OC | -10% | 1.56 |
| O=C(Cn1cccc(S(=O)(=O)N2CCCC2)c1=O)Nc1ccc(F)cc1Cl | -4% | 0.62 |
| Cn1nc(-c2cccnc2)cc1CNC(=O)NC(C)(C)C | 13% | -1.71 |
| N/C(=N\O)c1cccn1-c1nccs1 | 7% | -0.81 |
| Cc1nscc1C(=O)Nc1cccc(S(=O)(=O)C2CCOCC2)c1 | 13% | -1.66 |
| CC(CNC(=O)NCC(O)c1ccsc1)c1ccc(F)cc1F (stereo not drawn) | -11% | 1.89 |
| O=C(CCCN1Cc2ccccc2C1)N[C@@H]1C[C@H]2OCC[C@@H]12 | -14% | 1.37 |
| CCN(CC)c1onc(-c2ccccc2)c1CN(C(=O)CC(C)C)C(C)C | 1% | -0.24 |
| CC1(C)CC(N[C@@H]2c3ccccc3OC[C@@H]2CO)C1 | 2% | -0.21 |

| Compound | % Inhibition | Z score |
| --- | --- | --- |
| COc1cc(CN(C)C(=O)Nc2conc2C)sn1 | 3% | -0.44 |
| COc1cc(C)ccc1Oc1cc(N2CCN(S(=O)(=O)c3ccc(C)cc3)[C@@H](C)C2)ncn1 | -7% | 0.76 |
| O=C(c1ccc2c(c1)OCO2)N1CCC[C@@](CO)(CCCc2ccccc2)C1 | 0% | -0.01 |
| COc1cccc([C@H](c2sc3ncnn3c2O)N2CCCCCC2)c1OC | -3% | 0.42 |
| CCOC(=O)C1CCN(C(=O)c2ccc3c(c2)CCN3S(C)(=O)=O)CC1 | 0% | -0.04 |
| Cc1ccc(C(=O)NC[C@H]2CCCO2)c(C2CCN(Cc3ccccc3)CC2)n1 | 6% | -0.72 |
| C#CCNC(=O)c1cc(Br)ccc1O | -45% | 5.22 |
| COC1(C(=O)Nc2cccc(N(C)C)c2C)CCOCC1 | 28% | -3.14 |
| Cc1nn(C)c(Cl)c1CNCCc1cn2c(n1)CCCC2 | -4% | 0.58 |
| C[C@H](NC(=O)Nc1ccccc1)C(=O)N(C)Cc1ccsc1 | -5% | 0.63 |
| COCc1nc(CCC(=O)OC)cs1 | 1% | -0.1 |
| CCc1ccc2ncc3c(-c4ccc(F)cc4)n[nH]c3c2c1 | -6% | 0.73 |
| Cc1cc(N(C)C)nc(NC(=O)N2CC[C@H](CN3CCCCC3)C2)n1 | -16% | 1.87 |
| CCc1ccc(CN2CCC[C@H](CNC(=O)NC(C)C)C2)nc1 | 8% | -1.16 |
| CS(=O)(=O)c1cc(C(=O)NCC[C@H]2CCc3ccccc32)cs1 | -7% | 1.35 |
| CC(NCCC(O)C(C)C)c1cccc(C#N)c1 (stereo not drawn) | -8% | 0.75 |
| Nc1nnnn1CC(=O)NCC1(N2CCOCC2)CCCCC1 | -7% | 1.25 |
| Cc1ccccc1NC(=O)c1nnc(CCCC(=O)NCc2ccccc2Cl)s1 | -10% | 1.71 |
| CN1CCC(CNS(=O)(=O)c2cccs2)CC1 | -1% | 0.27 |
| CC(=O)c1cccc(N(C)CC2CCCC2O)n1 (stereo not drawn) | 1% | -0.24 |
| COc1ccc(-c2nc3ccc(C(=O)N4CCN(c5cc(C)ccc5C)CC4)cc3nc2-c2ccc(OC)c(OC)c2)cc1OC | 13% | -1.49 |
